The record followed here is the antibiotic and cytotoxicity screens of Wong et al. (2023).

The other results are listed elsewhere or left out.

One assay relates to HSkMC. The assay can be described thus: cytotoxicity call (relative viability < 0.9). To be noted: 10 µM.
Another assay deals with HepG2. In words: cytotoxicity call (relative viability < 0.9). Particulars: 10 µM.
The test system of a further assay is S. aureus RN4220. The assay can be described thus: growth inhibition call (relative growth <= 0.2). To be noted: 50 µM.

For `C[C@H]1CN([C@@H](C)CO)C(=O)Cc2cc(NS(C)(=O)=O)ccc2O[C@H]1CN(C)S(=O)(=O)c1ccc(F)cc1`, the cytotoxicity call in the assay on HSkMC and with HepG2 was “inactive” each time. Also, the growth inhibition call in the assay on S. aureus RN4220 is “inactive”.

Regarding `COc1ccc(NC(=O)N(C)C[C@H]2OCc3cnnn3CCCC(=O)N([C@@H](C)CO)C[C@H]2C)c(OC)c1`, the cytotoxicity call with HSkMC and with HepG2 was “inactive” in each case. In addition, the growth inhibition call in the assay on S. aureus RN4220 was “inactive”.

Take `C[C@@H]1CN([C@@H](C)CO)C(=O)c2c(c3ccccc3n2C)-c2ccccc2CO[C@H]1CN(C)C(=O)Nc1ccccc1C(F)(F)F`: the cytotoxicity call in the assay on HSkMC and in the assay on HepG2 was “inactive” throughout. In addition, the growth inhibition call with S. aureus RN4220 was “inactive”.

As to `N#CCC(=O)N1CCCCC1`, the cytotoxicity call in the assay on HSkMC and with HepG2 was “inactive” each time. Further, in the assay on S. aureus RN4220, the growth inhibition call is “inactive”.

As to `N[C@@H](CC(=O)Nc1ccc(Cl)cc1)C(=O)O`, the cytotoxicity call in the assay on HSkMC and with HepG2 was “inactive” each time. Moreover, the growth inhibition call in the assay on S. aureus RN4220 was “inactive”.

`CC(CCc1ccc(O)cc1)NCC(O)c1ccc(O)cc1.Cl` (stereo not given): the cytotoxicity call in the assay on HSkMC and with HepG2 was “inactive” each time. Besides, in the assay with S. aureus RN4220, the growth inhibition call was “inactive”.

Take `COC(=O)C1=C(C)NC(C)=C(C(=O)OCCCN2CCC(c3ccccc3)(c3ccccc3)CC2)[C@@H]1c1cccc([N+](=O)[O-])c1`: the cytotoxicity call in the assay on HSkMC and in the assay with HepG2 was “active” throughout. The growth inhibition call in the assay with S. aureus RN4220 was “inactive”.

As to `CC(C)NC(=O)Nc1ccc2c(c1)C(=O)N([C@H](C)CO)C[C@@H](C)[C@H](CN(C)C(=O)Nc1ccc3c(c1)OCO3)O2`, the cytotoxicity call in the assay with HSkMC and in the assay with HepG2 was “inactive” in each case. Also, the growth inhibition call with S. aureus RN4220 was “inactive”.

`CC(C)C#Cc1ccc2c(c1)O[C@H](CN(C)S(=O)(=O)c1cn(C)cn1)[C@@H](C)CN([C@H](C)CO)S2(=O)=O`: the cytotoxicity call in the assay with HSkMC and with HepG2 was “inactive” throughout. Further, the growth inhibition call in the assay on S. aureus RN4220 was “inactive”.

In the case of `COCCOC(=O)N1C(=O)[C@@]2(c3cc(C#CC4=CCCCC4)ccc31)[C@H](c1ccc(OCCO)cc1)N1[C@H](c3ccccc3)[C@H](c3ccccc3)OC(=O)[C@H]1[C@@H]2C(=O)N1CCc2cc(OC)c(OC)cc2C1`, the cytotoxicity call in the assay on HSkMC (human skeletal muscle cells) is “inactive”. Moreover, the cytotoxicity call with HepG2 is “active”. Also, the growth inhibition call in the assay on S. aureus RN4220 is “inactive”.
